# Whole data set: some 2,900 compounds, median “NF-kB SEAP reporter activity, fold change vs agonist alone” near 0.99, cut for the highest 2% near 2.6. This is one part of the list.
# Key:
# RAW-Dual [1] = assay: NF-kB SEAP reporter activity, fold change vs agonist alone; higher = enhanced NF-kB activity; conditions: library stock concentration (final ~1000-fold dilution): 10 mM
# How it was run: (§1)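 RAW-Dual macrophages were seeded in DMEM at 50,000 cells/well in 384-well plates, given 50 nL of library stock by pin tool, and given a PRR agonist 1 h later. Plates were held at 37 °C, 5% CO2 for 20 hours, after which supernatant was read for IRF by QuantiLuc luminescence and for NF-κB by QuantiBlue absorbance at 620 nm. Reporter activity is expressed as fold change over wells that received agonist alone. A well was called cytotoxic when IncuCyte confluency fell below 70% of agonist controls in both mask sets.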
# RAW-Dual [2] = assay: NF-kB SEAP reporter activity, fold change vs agonist alone; cytotoxicity flag (confluency mask): not cytotoxic; higher = enhanced NF-kB activity
# How it was run: as §1
# RAW-Dual [3] = assay: NF-kB SEAP reporter activity, fold change vs agonist alone; cytotoxicity flag (confluency mask): cytotoxic (confluency <70% of control); higher = enhanced NF-kB activity
# How it was run: as §1
# [4] = cytotoxicity flag (confluency mask): cytotoxic (confluency <70% of control), agonist: Imiquimod (TLR7) […]
# [5] = cytotoxicity flag (confluency mask): cytotoxic (confluency <70% of control), agonist: MPLA (TLR4) […]
# [6] = cytotoxicity flag (confluency mask): not cytotoxic, agonist: Imiquimod (TLR7) […]
# [7] = cytotoxicity flag (confluency mask): not cytotoxic, agonist: MPLA (TLR4) […]
# [8] = agonist: ODN 1826 (TLR9) 0.5 ug/mL
# [9] = agonist: Pam2CSK4 (TLR2/6) 0.1 ug/mL
# [10] = agonist: Pam3CSK4 (TLR2/1) 0.1 ug/mL
smiles,measurement,setting,value
CCOC(=O)C1=C(N)Oc2ccc(Cl)cc2C1C(C#N)C(=O)OCC (stereo not drawn),NF-kB SEAP reporter activity,RAW-Dual [1]; [4],0.749
same,NF-kB SEAP reporter activity,RAW-Dual [1]; [5],1.47
Cc1nc(C(=O)NCC(=O)O)c(O)c2ccc(Oc3ccccc3)cc12,NF-kB SEAP reporter activity,RAW-Dual [1]; [6],0.822
same,NF-kB SEAP reporter activity,RAW-Dual [1]; [7],0.651
Cc1nc(C(=O)NCC(=O)O)c(O)c2ccc(Oc3ccccc3)cc12 (library stock concentration (final ~1000-fold dilution): 10 mM),NF-kB SEAP reporter activity,RAW-Dual [2]; agonist: LPS (TLR4) 0.1 ug/mL,0.514
same,NF-kB SEAP reporter activity,RAW-Dual [2]; [8],0.69
same,NF-kB SEAP reporter activity,RAW-Dual [2]; [9],0.307
same,NF-kB SEAP reporter activity,RAW-Dual [2]; [10],0.384
COc1nc2ccc(Br)cc2cc1C(c1ccccc1)C(O)(CCN(C)C)c1cccc2ccccc12 (stereo not drawn),NF-kB SEAP reporter activity,RAW-Dual [1]; [6],0.771
same,NF-kB SEAP reporter activity,RAW-Dual [1]; [7],0.783
COc1nc2ccc(Br)cc2cc1C(c1ccccc1)C(O)(CCN(C)C)c1cccc2ccccc12 (stereo not drawn) (library stock concentration (final ~1000-fold dilution): 10 mM),NF-kB SEAP reporter activity,RAW-Dual [2]; agonist: LPS (TLR4) 0.1 ug/mL,0.761
same,NF-kB SEAP reporter activity,RAW-Dual [2]; [8],0.86
same,NF-kB SEAP reporter activity,RAW-Dual [2]; [9],0.78
same,NF-kB SEAP reporter activity,RAW-Dual [2]; [10],0.531
COc1cc2c(NC3CCN(C(C)C)CC3)nc(N3CCC(F)(F)CC3)nc2cc1OCCCN1CCCC1,NF-kB SEAP reporter activity,RAW-Dual [1]; [4],0.781
same,NF-kB SEAP reporter activity,RAW-Dual [1]; [5],1.92
COc1cc2c(NC3CCN(C(C)C)CC3)nc(N3CCC(F)(F)CC3)nc2cc1OCCCN1CCCC1 (library stock concentration (final ~1000-fold dilution): 10 mM),NF-kB SEAP reporter activity,RAW-Dual [3]; agonist: LPS (TLR4) 0.1 ug/mL,2.55
same,NF-kB SEAP reporter activity,RAW-Dual [3]; [8],0.219
same,NF-kB SEAP reporter activity,RAW-Dual [3]; [9],0.794
same,NF-kB SEAP reporter activity,RAW-Dual [3]; [10],1.38
COc1cc(NS(=O)(=O)c2ccc(N)cc2)ncn1,NF-kB SEAP reporter activity,RAW-Dual [1]; [6],1.07
same,NF-kB SEAP reporter activity,RAW-Dual [1]; [7],1.07
COc1cc(NS(=O)(=O)c2ccc(N)cc2)ncn1 (library stock concentration (final ~1000-fold dilution): 10 mM),NF-kB SEAP reporter activity,RAW-Dual [2]; agonist: LPS (TLR4) 0.1 ug/mL,0.983
same,NF-kB SEAP reporter activity,RAW-Dual [2]; [8],0.98
same,NF-kB SEAP reporter activity,RAW-Dual [2]; [9],0.943
same,NF-kB SEAP reporter activity,RAW-Dual [2]; [10],1.11
CC1(F)C(O)C(CO)OC1n1ccc(=O)[nH]c1=O (stereo not drawn) (library stock concentration (final ~1000-fold dilution): 10 mM),NF-kB SEAP reporter activity,RAW-Dual [2]; agonist: LPS (TLR4) 0.1 ug/mL,1.26
same,NF-kB SEAP reporter activity,RAW-Dual [2]; [8],0.945
same,NF-kB SEAP reporter activity,RAW-Dual [2]; [9],0.82
same,NF-kB SEAP reporter activity,RAW-Dual [2]; [10],0.78
CC1(F)C(O)C(CO)OC1n1ccc(=O)[nH]c1=O (stereo not drawn),NF-kB SEAP reporter activity,RAW-Dual [1]; [7],1.02
CN1CCN2c3ncccc3Cc3ccccc3C2C1 (stereo not drawn) (library stock concentration (final ~1000-fold dilution): 10 mM),NF-kB SEAP reporter activity,RAW-Dual [2]; agonist: LPS (TLR4) 0.1 ug/mL,1.26
same,NF-kB SEAP reporter activity,RAW-Dual [2]; [8],1.18
same,NF-kB SEAP reporter activity,RAW-Dual [2]; [9],1.12
same,NF-kB SEAP reporter activity,RAW-Dual [2]; [10],1.11
CN1CCN2c3ncccc3Cc3ccccc3C2C1 (stereo not drawn),NF-kB SEAP reporter activity,RAW-Dual [1]; [6],0.926
same,NF-kB SEAP reporter activity,RAW-Dual [1]; [7],1.04
CCOC(=O)C(CCc1ccccc1)NC1CSC(c2cccs2)CN(CC(=O)O)C1=O.Cl (stereo not drawn),NF-kB SEAP reporter activity,RAW-Dual [1]; [6],1.01
same,NF-kB SEAP reporter activity,RAW-Dual [1]; [7],1.01
CCOC(=O)C(CCc1ccccc1)NC1CSC(c2cccs2)CN(CC(=O)O)C1=O.Cl (stereo not drawn) (library stock concentration (final ~1000-fold dilution): 10 mM),NF-kB SEAP reporter activity,RAW-Dual [2]; agonist: LPS (TLR4) 0.1 ug/mL,0.869
same,NF-kB SEAP reporter activity,RAW-Dual [2]; [8],1.04
same,NF-kB SEAP reporter activity,RAW-Dual [2]; [9],0.946
same,NF-kB SEAP reporter activity,RAW-Dual [2]; [10],1.15
CCn1c(=O)c2c(nc(/C=C/c3ccc(OC)c(OC)c3)n2C)n(CC)c1=O,NF-kB SEAP reporter activity,RAW-Dual [1]; [6],1.1
same,NF-kB SEAP reporter activity,RAW-Dual [1]; [7],1.09
CCn1c(=O)c2c(nc(/C=C/c3ccc(OC)c(OC)c3)n2C)n(CC)c1=O (library stock concentration (final ~1000-fold dilution): 10 mM),NF-kB SEAP reporter activity,RAW-Dual [2]; agonist: LPS (TLR4) 0.1 ug/mL,1.34
same,NF-kB SEAP reporter activity,RAW-Dual [2]; [8],1.08
same,NF-kB SEAP reporter activity,RAW-Dual [2]; [9],1.33
same,NF-kB SEAP reporter activity,RAW-Dual [2]; [10],1.3
CCS(=O)(=O)c1cccc(-c2cc(C(=O)NC3CCN(C)CC3)c(C)c3[nH]c4ncc(C)cc4c23)c1,NF-kB SEAP reporter activity,RAW-Dual [1]; [4],1.08
same,NF-kB SEAP reporter activity,RAW-Dual [1]; [5],0.643
CCS(=O)(=O)c1cccc(-c2cc(C(=O)NC3CCN(C)CC3)c(C)c3[nH]c4ncc(C)cc4c23)c1 (library stock concentration (final ~1000-fold dilution): 10 mM),NF-kB SEAP reporter activity,RAW-Dual [3]; agonist: LPS (TLR4) 0.1 ug/mL,0.336
same,NF-kB SEAP reporter activity,RAW-Dual [3]; [8],1.79
same,NF-kB SEAP reporter activity,RAW-Dual [3]; [9],0.306
same,NF-kB SEAP reporter activity,RAW-Dual [3]; [10],1.1
Fc1ccc(Cn2c(Cl)nc3ccccc32)cc1,NF-kB SEAP reporter activity,RAW-Dual [1]; [7],1.44
Fc1ccc(Cn2c(Cl)nc3ccccc32)cc1 (library stock concentration (final ~1000-fold dilution): 10 mM),NF-kB SEAP reporter activity,RAW-Dual [2]; agonist: LPS (TLR4) 0.1 ug/mL,1.53
same,NF-kB SEAP reporter activity,RAW-Dual [2]; [8],0.823
same,NF-kB SEAP reporter activity,RAW-Dual [2]; [9],0.902
same,NF-kB SEAP reporter activity,RAW-Dual [2]; [10],0.885
C[C@H]1CC[C@@]2(OC1)O[C@H]1C[C@H]3[C@@H]4CC[C@@H]5C[C@@H](O)CC[C@]5(C)[C@H]4CC[C@]3(C)[C@H]1[C@@H]2C,NF-kB SEAP reporter activity,RAW-Dual [1]; [6],0.927
same,NF-kB SEAP reporter activity,RAW-Dual [1]; [7],1.07
C[C@H]1CC[C@@]2(OC1)O[C@H]1C[C@H]3[C@@H]4CC[C@@H]5C[C@@H](O)CC[C@]5(C)[C@H]4CC[C@]3(C)[C@H]1[C@@H]2C (library stock concentration (final ~1000-fold dilution): 10 mM),NF-kB SEAP reporter activity,RAW-Dual [2]; agonist: LPS (TLR4) 0.1 ug/mL,1.33
same,NF-kB SEAP reporter activity,RAW-Dual [2]; [8],0.993
same,NF-kB SEAP reporter activity,RAW-Dual [2]; [9],1.12
same,NF-kB SEAP reporter activity,RAW-Dual [2]; [10],1.02
CC(Cn1ccc(-c2ccc(C#N)c(Cl)c2)n1)NC(=O)c1cc(C(C)O)[nH]n1 (stereo not drawn) (library stock concentration (final ~1000-fold dilution): 10 mM),NF-kB SEAP reporter activity,RAW-Dual [2]; agonist: LPS (TLR4) 0.1 ug/mL,1.25
same,NF-kB SEAP reporter activity,RAW-Dual [2]; [8],1.04
same,NF-kB SEAP reporter activity,RAW-Dual [2]; [9],1
same,NF-kB SEAP reporter activity,RAW-Dual [2]; [10],1.31
CC(Cn1ccc(-c2ccc(C#N)c(Cl)c2)n1)NC(=O)c1cc(C(C)O)[nH]n1 (stereo not drawn),NF-kB SEAP reporter activity,RAW-Dual [1]; [6],0.922
same,NF-kB SEAP reporter activity,RAW-Dual [1]; [7],1.02
NC(=O)C1CCCc2c1[nH]c1ccc(Cl)cc21 (stereo not drawn),NF-kB SEAP reporter activity,RAW-Dual [1]; [6],1.06
same,NF-kB SEAP reporter activity,RAW-Dual [1]; [7],1.08
NC(=O)C1CCCc2c1[nH]c1ccc(Cl)cc21 (stereo not drawn) (library stock concentration (final ~1000-fold dilution): 10 mM),NF-kB SEAP reporter activity,RAW-Dual [2]; agonist: LPS (TLR4) 0.1 ug/mL,1.09
same,NF-kB SEAP reporter activity,RAW-Dual [2]; [8],1.1
same,NF-kB SEAP reporter activity,RAW-Dual [2]; [9],0.903
same,NF-kB SEAP reporter activity,RAW-Dual [2]; [10],1.12
